Reference: PubChem BioAssay AID1347417 (National Center for Advancing Translational Sciences (NCATS), 2020)
Out of some 120,000 compounds screened, about 5,300 (4.4%) were called active. This list was built around the results that the source calls inconclusive (neither active nor inactive); the mix of calls is not that of the screen. Calls come from the whole dose curve; as a rule, active = well fitted inhibition curve with a large enough effect; inconclusive = small, poorly fitted or top-dose-only effect; inactive = no such curve, though single readings can be large or run the other way. Potencies beside an inconclusive call are fits to weak or partial responses and may not hold up.

Test: qHTS Primary assay for Inhibitors of Plasmodium falciparum Dd2 growth in vitro; note: nearly all actives have a fitted effect of over 65% in size;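 for activity, negative = inhibition: plate controls were DMSO vehicle for no effect and reference drug for full effect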
Settings: P. falciparum Dd2 growth, SYBR Green, 72 h; activity, negative = inhibition: at 28.9 µM (top of the series) unless noted; series mostly up to 28.9 µM
Outline: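 Infected erythrocytes (Dd2, 0.3% parasitemia, 2.5% hematocrit final) are added to compound in RPMI-1640/Albumax II medium, grown 72 h at 37C in low oxygen, then lysed with saponin/Triton-X containing SYBR Green and read by fluorescence.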
Potency is the fitted concentration of half-maximal effect; tags give direction and shape of the fitted curve.

Structure (SMILES)	Potency	activity, negative = inhibition
COc1ccc(-c2cnc([C@@H]3COCCN3Cc3nc4ccccc4n3C)[nH]2)cc1	inconclusive: 2.82 µM [inhibitor, single point]	–
COc1ccc(N2CC(c3noc(-c4cccc(F)c4)n3)CC2=O)cc1OC (stereo unspecified)	inactive	–
NCc1ccccc1-c1ccc(F)cc1	inconclusive: 1.26 µM [inhibitor, full curve, poor fit]	–
O=C(COc1ccc(Cl)c(Cl)c1)N1CCC2(CCCNC2=O)C1 (stereo unspecified)	inactive	–
COC(=O)c1ccc(CN2C(=O)[C@@H]3C[C@@H](O)CN3C3(CN(Cc4ccc(OC)c5ccccc45)C3)C2=O)cc1	inconclusive: 7.94 µM [inhibitor, partial curve, poor fit]	–
Cc1noc(C)c1CC(=O)N1CCC2(CC1)CN(C(=O)NC(C)C)Cc1ccccc1O2	inactive	–
COCC(=O)NC1CCC12CCN(C(=O)Cc1c[nH]c3ccccc13)CC2 (stereo unspecified)	inactive	–
Cc1ccc(/C=C/c2onc(C)c2S(=O)(=O)N2CCC(C(=O)NCc3ccc(C)o3)CC2)cc1	inconclusive: 11.2 µM [inhibitor, single point]	–
COc1ccc(CNC(=O)c2c(O)nc3cc(C)ccn3c2=O)cc1	inactive	–
COCCN1CCCCCC(O)c2cc(C(=O)NCCCc3ccccc3)ccc21 (stereo unspecified)	inactive	–
Cc1ncc2n1C(=O)N(C1CCN(Cc3cccc4ccccc34)CC1)C2	inconclusive: 17.8 µM [inhibitor, single point]	–
Cc1cc(Cl)ccc1-n1nc(C)c([C@@H]2C=C[C@@H](NC(=O)CCC(=O)O)C2)c1C	inconclusive: 22.4 µM [inhibitor, single point]	–
CCOc1ccc(-c2nc(SCC(=O)Nc3ccc(C)c(C)c3)n3[nH]c(=O)cc3n2)cc1	inconclusive: 17.8 µM [inhibitor, single point]	–
Cc1cccc(NC(=O)CSc2nc(-c3ccccc3)cn2-c2ccccc2)c1C	inconclusive: 10 µM [inhibitor, single point]	–
COc1ccc(Nc2ncc(C(=O)N3CCN(c4cccc(Cl)c4)CC3)c3ccccc23)cc1	inconclusive: 17.8 µM [inhibitor, single point]	–
O=C(C1CC=CC1)N1C[C@@H](COCC2CC2)[C@H](c2ccncc2)C1	inactive	–
CN(C)C[C@@H]1CN(C2CCOCC2)C[C@H]1NC(=O)c1cc2ccccc2[nH]1	inconclusive: 4.47 µM [inhibitor, partial curve]	–
CC(C)c1ccc(CN2CCC3(CC2)COCCN3C(=O)c2ccc3[nH]ncc3c2)cc1	inconclusive: 11.2 µM [inhibitor, partial curve, poor fit]	–
CCc1c(-c2ccccc2)nc2ccccc2c1C(=O)NCCc1ccccc1	inconclusive: 17.8 µM [inhibitor, single point]	–
CSc1cccc(NC(=O)Cn2c3ncccc3c(=O)n2-c2ccc(C)cc2)c1	inconclusive: 8.91 µM [inhibitor, single point]	–
COc1ccccc1-c1nc2nccc(-c3ccccc3)n2n1	inconclusive: 11.2 µM [inhibitor, single point]	–
COCCCNc1nc(-c2cccnc2)nc2c1CNC2	inactive	–

Structure (SMILES)	Potency	activity, negative = inhibition
O=C(NC1COC1)c1ccc2c(c1)C1(CCN(CC3CC3)C1)CN2Cc1ccccc1 (stereo unspecified)	inconclusive: 31.6 µM [inhibitor, single point]	–
C=CCNC(=O)c1coc(COc2ccc3c(c2)C(c2cccc(C)c2)N(C(=O)C2CC2)CC3)n1 (stereo unspecified)	inconclusive: 8.91 µM [inhibitor, partial curve, poor fit]	–
Cc1cccc(CNC(=O)c2cc3c(N4CCCC4)nc(C)cn3n2)c1	inconclusive: 7.94 µM [inhibitor, partial curve, poor fit]	–
Cc1ccc(C)c(CN2C(=O)c3ccccc3S(=O)(=O)c3ccc(C(=O)N4CCCCCC4)cc32)c1	inconclusive: 1.58 µM [inhibitor, full curve, poor fit]	–
O=C([C@@H]1C[C@H](Oc2ccccc2)CN1C(=O)CN1CCCCCC1)N1CCCC1	inconclusive: 2 µM [inhibitor, partial curve, poor fit]	–
O=C(c1cnccn1)N1CCCCCC1c1nnc(-c2ccccc2)o1 (stereo unspecified)	inactive	–
O=C(Nc1ccc(Cl)cc1)N1CCc2nc(C3CC3)nc(-c3ccc(Cl)cc3)c2C1	inconclusive: 6.31 µM [inhibitor, partial curve, poor fit]	–
CC(=O)Nc1ccc(C2Sc3ccccc3NC3=C2C(=O)c2ccccc23)cc1 (stereo unspecified)	inconclusive: 10 µM [inhibitor, single point]	–
COCCn1ccc2c(C3=CCOCC3)nc(-c3cccc(N[S+](C)(=O)[O-])c3)cc21	inactive	–
CCOC(=O)C1CCCN(C(=O)Cn2ncc3c(C)n(Cc4ccc(F)cc4)c(C)c3c2=O)C1 (stereo unspecified)	inconclusive: 20 µM [inhibitor, partial curve, poor fit]	–
CCOc1ccc(OCC)c(NC(=O)c2cnn(-c3ccc(F)cc3)c2C2CCN(C(=O)OC(C)(C)C)CC2)c1	inconclusive: 3.98 µM [inhibitor, partial curve, poor fit]	–
O=C(C1CCN(c2cnn(Cc3ccccc3)c(=O)c2)C1)N1CCc2ccccc2C1 (stereo unspecified)	inactive	–
O=C(c1cccnc1)N1CCC(c2nnc3n2C(C(=O)N2CCN(c4ncccn4)CC2)CC3)CC1 (stereo unspecified)	–	inconclusive: -34.4% [inhibitor]
COc1cccc(-c2nn(C)c3sc(C(=O)NCCc4cccc(C)c4)cc23)c1	inactive	–
COc1cccc(CNC(=O)[C@@H]2C[C@@H](O)CN2C2CCN(C(=O)c3cccnc3C)CC2)c1	inactive	–
CNC(=O)[C@@H]1C[C@H](Oc2cccnc2)CN1C(=O)Cn1nc(C)cc1C	inactive	–
O=C(Nc1ccc2nc(SCCOc3ccccc3Cl)sc2c1)c1ccco1	inconclusive: 10 µM [inhibitor, partial curve, poor fit]	–
COc1ccccc1CCC(=O)N1CCCC2(C1)Nc1cccnc1NC2=NC1CCCC1 (stereo unspecified)	inconclusive: 1.12 µM [inhibitor, partial curve, poor fit]	–
O=C(Nc1cc(F)ccc1F)N1CCOc2ccc(CN3CCc4ccccc4C3)cc2C1	inconclusive: 1.41 µM [inhibitor, partial curve, poor fit]	–
CCN(CC)C(=O)[C@@H]1CCC[C@@H](NCc2nccs2)CN(C)C(=O)C1	inactive	–
CCOc1ccc2c(c1)c(=O)c(C(=O)c1ccc3c(c1)OCO3)cn2Cc1cccc(F)c1	inconclusive: 10 µM [inhibitor, partial curve]	–
O=C(Nc1ccccc1)N1Cc2[nH]cnc2C[C@H]1c1nc(-c2ccc(Cl)cc2)no1	inactive	–

Structure (SMILES)	Potency	activity, negative = inhibition
O=C(NCCCN1CCOCC1)C1CN(S(=O)(=O)c2ccccc2)CC12CCCCC2 (stereo unspecified)	inconclusive: 7.94 µM [inhibitor, partial curve, poor fit]	–
O=C(c1ccc2c(c1)OCO2)N1CCC2(CC1)C(=O)Nc1ccccc12	inconclusive: 11.2 µM [inhibitor, partial curve]	–
Cc1ccc(C(=O)N2CCC(n3cc(-c4nc(C(C)C)no4)nn3)CC2)cc1F	inconclusive: 3.55 µM [inhibitor, partial curve, poor fit]	–
Cc1ccc(CNC(=O)CC2CCCN(c3cnn(CC4CC4)c(=O)c3)C2)cc1C (stereo unspecified)	inactive	–
COC(=O)C(NC(=O)CCc1c(C)nc2cc(-c3cccc(F)c3)nn2c1C)C(C)C (stereo unspecified)	inconclusive: 17.8 µM [inhibitor, single point]	–
O=C1NCCCCCCN(S(=O)(=O)c2cccc3cccnc23)[C@H]2CCC[C@@H]12	inconclusive: 8.91 µM [inhibitor, single point]	–
COc1ccc2c(c1)CCN=C2C[C@H]1CN(C(=O)c2c(C)noc2C)CC[C@H]1CC(=O)O	inactive	–
CC(C)c1nc2c(c(-c3ccc(O)cc3)n1)CN(Cc1ccsc1)CC2	inconclusive: 3.98 µM [inhibitor, partial curve, poor fit]	–
Cc1ccc(CSc2nc(N)cc(N3CCN(CCCO)CC3)n2)cc1	inactive	–
CCCOc1ccc(-c2nc3ccc(-c4ccc(OC)c(OC)c4OC)cc3o2)cc1	active: 10 µM	–
CC1CCn2c(nc3cc(C(=O)NCCc4ccccc4)ccc32)C1 (stereo unspecified)	inconclusive: 17.8 µM [inhibitor, single point]	–
CCN(CC)Cc1ccc2c(c1)CN(C(=O)Nc1cccc(F)c1)CCO2	inconclusive: 2.82 µM [inhibitor, single point]	–
C[C@@H]1CN(C(=O)c2cc(C(F)(F)F)[nH]n2)C[C@@]1(O)C1CCC1	inactive	–
O=[S+]([O-])(NCC1CN(Cc2ccc3[nH]ccc3c2)CC12CN(c1ccccc1)C2)c1ccccc1 (stereo unspecified)	inactive	–
O=C(Cn1cc2c(n1)CCCC2)Nc1cc(C(F)(F)F)ccc1Cl	active: 7.08 µM	–
Cn1cccc1CN1CCC2(CC1)CN[S+](=O)([O-])c1ccccc1N2	inactive	–
CCCn1cc(S(=O)(=O)c2ccccc2)c(=O)c2cc(F)c(N3CCCCCC3)cc21	active: 11.2 µM	–
CCc1nc(-c2c3n(c(=O)n(CC(=O)NC4CCCCC4)c2=O)CCCCC3)no1	inactive	–
O=C(Nc1cccc(-c2nnc3n2CCCC3)c1)c1cccc(F)c1	inconclusive: 12.6 µM [inhibitor, single point]	–
Cc1ccc2c(c1)C(c1ccccc1)N(C(=O)c1ccc(S(=O)(=O)N3CCCC3)cc1)CC(=O)N2 (stereo unspecified)	inactive	–
COc1ccc2sc(N(Cc3cccnc3)C(=O)c3cccs3)nc2c1	inconclusive: 5.01 µM [inhibitor, partial curve]	–
Clc1ccc(CNc2ncncc2-c2nc(-c3ccccc3)no2)cc1	inactive	–
